The structures appear in SMILES notation. ≈ marks a conversion by molar mass, not a printed value. Bounds are passed on as bounds.

Common to all, as to test: microbe, parasite or virus in culture
Test [1] concerns Vesicular stomatitis virus. Format: cell-based. As to conditions: PRK, read-out: Minimum inhibitory concentration.
In test [2] the test system is Herpes simplex virus-1 (KOS). As to conditions: Human alphaherpesvirus 1, PRK; read-out: Minimum inhibitory concentration.
A further test relates to Coxsackie B4. As to conditions: Enterovirus B, B4, PRK; read-out: MIC50.

Consider `CC(C)COC(=O)C(O)Cn1cnc2c(N)ncnc21` (racemic) [Compound 7], for which the EC50 was 1 to 3 µg/mL (≈ 3.58 to 10.7 µM) in test [1] and over 400 µg/mL in test [2].

For `CC(C)CCOC(=O)C(O)Cn1cnc2c(N)ncnc21` (racemic) [Compound 8], the EC50 was 3 µg/mL (≈ 10.2 µM) in test [1] and over 400 µg/mL in test [2].

`CCCOC(=O)C(O)Cn1cnc2c(N)ncnc21` (racemic) [Compound 3]: the values for the EC50 in test [1] and in test [2] were 1 to 3 µg/mL (≈ 3.77 to 11.3 µM) and over 100 µg/mL, respectively.

`CCOC(=O)[C@@H](O)Cn1cnc2c(N)ncnc21` [C2 H5 (S)]: the EC50 with Coxsackie B4 is over 400 µg/mL.

Consider `CCCCCCCCOC(=O)C(O)Cn1cnc2c(N)ncnc21` (racemic) [Compound 9], for which the EC50 in test [1] was 7 µg/mL (≈ 20.9 µM); in test [2], over 100 µg/mL.

Turning to `COC(=O)[C@@H](O)Cn1cnc2c(N)ncnc21` [CH3 (S), methylester of 3-(adenin-9-yl)-2-hydroxypropanoic acid], the EC50 in the test on Coxsackie B4 worked out at 150 µg/mL (≈ 632 µM).

For the compound `COC(=O)C(O)Cn1cnc2c(N)ncnc21` (racemic) [Compound 1, methylester of 3-(adenin-9-yl)-2-hydroxypropanoic acid], the EC50 with Coxsackie B4 was over 400 µg/mL; in test [1] it was 3 µg/mL (≈ 12.6 µM); in test [2], over 400 µg/mL.

For the compound `CCCCOC(=O)C(O)Cn1cnc2c(N)ncnc21` (racemic) [Compound 5], the EC50 in test [1] was 3 µg/mL (≈ 10.7 µM); in test [2], over 200 µg/mL.

With `COCCOC(=O)C(O)Cn1cnc2c(N)ncnc21` (racemic) [Compound 10], the EC50 in test [1] is 7 µg/mL (≈ 24.9 µM); in test [2], over 400 µg/mL.

On to `Nc1ncnc2c1ncn2CC(O)C(=O)OC1CCCCC1` (racemic) [Compound 11], for which the EC50 in test [1] is 1 µg/mL (≈ 3.28 µM); in test [2], over 100 µg/mL.

`Nc1ncnc2c1ncn2CC(O)CO` (racemic) [(RS)--DHPA, 9-(2,3-dihydroxypropyl)adenine, reference compound]: the EC50 in test [1] was 15 to 30 µg/mL (≈ 71.7 to 143 µM); in test [2], over 400 µg/mL.

In the case of `CCOC(=O)C(O)Cn1cnc2c(N)ncnc21` (racemic) [Compound 2], the EC50 was 1 µg/mL (≈ 3.98 µM) in test [1] and over 400 µg/mL in test [2].

`Nc1ncnc2c1ncn2C[C@H](O)CO` [(S)--DHPA, 9-(2,3-dihydroxypropyl)adenine, reference compound]: the results for the EC50 (with Coxsackie B4; in test [1]; in test [2]) were 100 µg/mL (≈ 478 µM), 15 to 30 µg/mL (≈ 71.7 to 143 µM) and over 400 µg/mL, respectively.

As for `COC(=O)[C@H](O)Cn1cnc2c(N)ncnc21` [CH3 (R), methylester of 3-(adenin-9-yl)-2-hydroxypropanoic acid], the EC50 with Coxsackie B4 worked out at 150 µg/mL (≈ 632 µM).

As for `CCC(C)OC(=O)C(O)Cn1cnc2c(N)ncnc21` (racemic) [Compound 6], the EC50 in test [1] was 1 µg/mL (≈ 3.58 µM); in test [2], over 400 µg/mL.

On to `CC(C)OC(=O)C(O)Cn1cnc2c(N)ncnc21` (racemic) [Compound 4], for which the EC50 in test [1] was 3 µg/mL (≈ 11.3 µM); in test [2], over 400 µg/mL.
